Laboratory results taken from PubChem BioAssay AID624417 (National Center for Advancing Translational Sciences (NCATS), 2012).
Out of some 410,000 compounds screened, about 6,400 (1.6%) were called active. This list was built around the results that the source calls inconclusive (neither active nor inactive); the mix of calls is not that of the screen. The call rests on the fitted dose curve; in most records, active means well fitted inhibition curve with a large enough effect; inconclusive means small, poorly fitted or top-dose-only effect; inactive means no such curve, though single readings can be large or run the other way. Potencies of inconclusive entries are left out as doubtful fits.

Target: Glucagon-like peptide 1 receptor (Homo sapiens) (UniProt P43220)
Assay: qHTS of GLP-1 Receptor Inverse Agonists (Inhibition Mode); further: nearly all actives have a fitted effect of over 55% in size
Conditions: HEK293 GLP-1R CRE-luciferase, luminescence, 24 h, GLP-1R form is constitutively active; activity change, negative = inhibition: at 38.3 µM (top of the series) unless noted
Outline: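 Readout was luciferase luminescence, measured 12 min after detection reagent at room temperature. Beforehand, GLP-1R reporter HEK293 cells had sat 12 h, then received compounds for 24 hr at 37 deg C.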
On the % scale 0 is the no-effect control and ±100 the full control effect; potency means the concentration at half of the fitted maximal effect; tags describe the fitted curve by direction and shape.

Sequence of UniProt P43220 (P43220 whole entry, looked up): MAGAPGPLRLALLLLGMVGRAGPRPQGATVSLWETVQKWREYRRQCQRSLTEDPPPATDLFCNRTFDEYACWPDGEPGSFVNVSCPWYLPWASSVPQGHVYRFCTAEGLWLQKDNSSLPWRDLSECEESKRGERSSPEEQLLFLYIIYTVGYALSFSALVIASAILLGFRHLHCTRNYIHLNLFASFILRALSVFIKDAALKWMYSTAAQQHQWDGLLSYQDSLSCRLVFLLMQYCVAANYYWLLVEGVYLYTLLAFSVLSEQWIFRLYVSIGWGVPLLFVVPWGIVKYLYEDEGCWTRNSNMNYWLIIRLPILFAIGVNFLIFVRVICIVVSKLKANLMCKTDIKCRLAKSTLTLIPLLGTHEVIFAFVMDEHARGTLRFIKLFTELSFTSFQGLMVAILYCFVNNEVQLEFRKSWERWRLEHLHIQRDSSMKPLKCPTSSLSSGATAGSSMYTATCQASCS

SMILES	Potency	activity change, negative = inhibition
Cc1nc2ccccc2n1Cc1ccc(Br)cc1	inconclusive [inhibitor, single point]	
CS(=O)(=O)N1CCc2cc(C(=O)Nc3ccc(Cl)cc3)ccc21	inactive	
CCOc1cc(NC(=O)C2CCCCC2)c(OCC)cc1NC(=O)c1ccccn1	inconclusive [inhibitor, full curve]	
Cc1ccccc1N(CC(=O)N1CCCC1)S(=O)(=O)c1ccc(Cl)cc1	inconclusive [inhibitor, single point]	
COC(=O)[C@@]12C[C@@H](CC(=O)NCCc3ccccc3OC)C(=O)N(Cc3ccccc3)C1=CCC(C)(C)C2	inconclusive [inhibitor, partial curve, poor fit]	
CCN(CC)S(=O)(=O)c1ccc(N2CCN(c3ccccc3OC)CC2)c(N)c1	active: 10 µM	
Cc1ccc(S(=O)(=O)Cn2nnnc2C(c2ccccc2)N2CCN(c3ccccc3)CC2)cc1 (configuration not stated)	inconclusive [inhibitor, partial curve]	
CC1CC(C)(C)NC(=S)N1CCCC(=O)N1CCN(c2ccccc2F)CC1 (configuration not stated)	inconclusive [inhibitor, single point]	
COc1ccc(Cl)cc1NC(=O)CC1CCCC1	inconclusive [inhibitor, partial curve, poor fit]	
Cc1ccc(OCCSc2nc(NC(C)C)nc(NC(C)C)n2)cc1	inconclusive [inhibitor, partial curve]	
NC(=O)C(c1ccc(Cl)cc1)c1ccc(Sc2ccccc2)nn1 (configuration not stated)	inconclusive [inhibitor, single point]	
CCc1ccc(NC(=O)NC2CCCCCCC2)cc1	inconclusive [inhibitor, partial curve]	
O=c1c(-c2ccco2)nc2ccccc2n1C(c1ccccc1)c1nc2ccccc2[nH]1 (configuration not stated)	inconclusive [inhibitor, single point]	
O=C(NC12CC3CC(CC(C3)C1)C2)c1ccc(-c2ccc(Br)cc2)o1	inconclusive [inhibitor, partial curve, poor fit]	
S=C(Nc1cccc2ccccc12)NC1CCCCC1	inconclusive [inhibitor, partial curve, poor fit]	
CCn1c(/C=C/c2ccc(F)cc2)nc2ccccc2c1=O	inconclusive [inhibitor, single point]	
COc1ccc(-n2cc(CNCc3cnc4ccccn34)c(-c3cccc(F)c3)n2)cc1	inconclusive [inhibitor, partial curve, poor fit]	
Cc1ccc(CN(Cc2ccco2)C(=S)Nc2ccccc2C)cc1	inconclusive [inhibitor, single point]	
c1ccc(-c2csc3ncnc(NCCN4CCOCC4)c23)cc1	inconclusive [inhibitor, full curve, poor fit]	
COC(=O)N/N=C/c1sc(N2CCCCC2)nc1-c1cccs1	inactive	
CCN(CC)CCSc1nnc2c3cc(F)ccc3n(Cc3ccccc3)c2n1	inconclusive [inhibitor, full curve]	

SMILES	Potency	activity change, negative = inhibition
CCCCOC(=O)c1ccccc1N1C(=O)C2C3CCC(C3)C2C1=O (configuration not stated)	inconclusive [inhibitor, single point]	
CN1CCN(C2=Cc3ccccc3Sc3cc(F)ccc32)CC1	inconclusive [inhibitor, partial curve, poor fit]	
O=C(CSc1nc2ccccc2s1)Nc1cc(C(=O)O)cc(C(=O)O)c1	inactive	
Cc1cccc(NC(=O)C2C3CCC4C(CCC32)C4(Cl)Cl)c1 (configuration not stated)		inconclusive: -35.5% [inhibitor]
C/C(=N\NC(=O)c1ccc(O)cc1)c1ccc(NC(=O)Cc2ccccc2)cc1	inconclusive [inhibitor, partial curve, poor fit]	
O=C(CSc1nc2[nH]ncc2c(=O)[nH]1)NCc1ccc(F)cc1	inactive	
O=C(c1cc([N+](=O)[O-])ccc1N1CCCCC1)N1CCc2ccccc21	active: 2 µM	
O=C(NC(=S)Nc1ccccc1N1CCOCC1)c1ccc(Br)cc1	inconclusive [inhibitor, partial curve, poor fit]	
CC1=NN(C(=O)c2cc(C)nn2C)C(O)(C(F)(F)F)C1 (configuration not stated)	inconclusive [inhibitor, full curve]	
O=S(=O)(NCc1cccc(C(F)(F)F)c1)NCc1ccccc1F	inconclusive [inhibitor, single point]	
CCOC(=O)C1(Cc2ccc(Cl)cc2)CCN(C2CCC2)CC1	inconclusive [inhibitor, partial curve, poor fit]	
CCN(CC)CCNc1nc(-c2ccccc2)c2c(c1C#N)CC(C)(C)OC2	inconclusive [inhibitor, single point]	
Cc1cc(C)cc(NC(=O)CN(c2cc(C(F)(F)F)ccc2Cl)S(=O)(=O)c2ccccc2)c1	inactive	
C=CCc1cccc(C2Nc3ccccc3C(=O)N2O)c1O (configuration not stated)	inconclusive [inhibitor, single point]	
O=C(COc1ccccc1Cl)Nc1cc(-c2ccccc2F)nn1-c1ccccc1	inactive	
COc1cc(Cl)c(C)cc1NC(=O)CN1CCN(C(=O)C2CC2)CC1	inconclusive [inhibitor, partial curve]	
CCOc1ccc2cc(C#N)c(SCC(=O)N3CCOCC3)nc2c1	inactive	
COc1ccccc1N1CCN(C(=O)c2ccc3c(=O)n4c(nc3c2)CCCCC4)CC1	inactive	
O=C(/C=C/c1ccccn1)c1cc(Br)ccc1O	inconclusive [inhibitor, single point]	
O=C(OCCCOc1ccc(F)cc1)c1ccc(O)cc1O	inconclusive [inhibitor, single point]	
CSc1cccc(NC(=S)N2CCCN(Cc3ccc(F)cc3)C2)c1	inconclusive [inhibitor, partial curve, poor fit]	
